Laboratory results as given in the supplement of paper PMC12217912.
The list shows a part of the results. Sequences were assembled here from the parent chain. Inactive controls read about 0.05.

B1: TEV protease; numbered along this chain (parent)
chain: MGESLFKGPRDYNPISSSICHLTNESDGHTTSLYGIGFGPFIITNKHLFRRNNGTLVVQSLHGVFKVKDTTTLQQHLVDGRDMIIIRMPKDFPPFPQKLKFREPQREERICLVTTNFQTKSMSSMVSDTSCTFPSGDGIFWKHWIQTKDGQCGSPLVSTRDGFIVGIHSASNFTNTNNYFTSVPKNFMELLTNQEAQQWVSGWRLNADSVLWGGHKVFMVKPEEPFQPVKEATQL

Variants of: B1
Assay: raw area under fraction-flipped curve 0-4 h after induction (AUC4h, not background-subtracted), DNA-recorder readout of cleavage of the substrate (dimensionless); higher = more cleavage of the substrate by the protease variant
Conditions: temperature: 34 °C; time window: 0-4 h after rhamnose induction
Experimental: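 In vivo DNA recorder in E. coli TOP10(DE3) ΔrhaA at 34 °C. Each TEVp single-site mutant (parent TEVp 0) is paired with a single-site variant of the 7-mer TEVs (canonical ENLYFQ|S). The substrate sits between flexible linkers in a Bxb1-sfGFP-TEVs-SsrA fusion, so cleavage stabilises Bxb1 and speeds flipping of a recombination array, read by NGS. The value is the raw area under the fraction-flipped curve over 0-4 h after rhamnose induction (AUC4h), with ≥20 reads per time point. It is not background-subtracted; inactive controls average about 0.047.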
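Note: Bxb1 expression induced with 0.2% (w/v) L-rhamnose at OD600 near 0.5, cultures sampled hourly, flipped fraction per protease–substrate barcode pair counted by paired-end Illumina sequencing.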

| Variant | area with substrate ENLYFQA | area with substrate ENLYFQC | area with substrate ENLYFQD | area with substrate ENLYFQF | area with substrate ENLYFQG | area with substrate ENLYFQK | area with substrate ENLYFQL | area with substrate ENLYFQM | area with substrate ENLYFQN | area with substrate ENLYFQR | area with substrate ENLYFQS | area with substrate ENLYFQT | area with substrate ENLYFQV | area with substrate ENLYFQY | area with substrate ENLYFQH | area with substrate ENLYFQI | area with substrate ENLYFQW | area with substrate ENLYFQE | area with substrate ENLYFQP |
| --- | --- | --- | --- | --- | --- | --- | --- | --- | --- | --- | --- | --- | --- | --- | --- | --- | --- | --- | --- |
| R87I | 0.0592 | 0.0805 | 0.0587 | 0.055 | 0.0767 | 0.057 | 0.05 | 0.0765 | 0.0642 | 0.0591 | 0.0844 | 0.0621 | 0.0579 | 0.0634 |  |  |  |  |  |
| Q74Y | 0.0865 | 0.103 |  | 0.0661 | 0.0956 | 0.0558 | 0.0599 |  |  |  | 0.0956 | 0.0678 | 0.0558 | 0.0619 | 0.0739 | 0.0557 | 0.0519 |  |  |
| Q74M | 0.083 | 0.107 |  | 0.0656 |  | 0.0631 | 0.0583 | 0.0839 | 0.0848 | 0.049 | 0.0964 | 0.0703 |  | 0.0721 |  | 0.0581 | 0.0594 | 0.0521 | 0.0698 |
| K90S | 0.0954 | 0.126 |  |  | 0.0799 |  | 0.0684 | 0.0599 |  | 0.0593 | 0.0903 | 0.0675 | 0.0562 | 0.0575 | 0.107 | 0.0561 |  |  |  |
| K90P | 0.0954 | 0.108 | 0.0573 |  | 0.0846 | 0.0667 |  |  | 0.0081 | 0.0613 | 0.101 | 0.052 |  | 0.0764 | 0.0764 |  | 0.0644 |  |  |
| K90N | 0.101 | 0.102 |  |  |  | 0.0667 | 0.0578 | 0.0861 |  | 0.0597 | 0.0974 |  | 0.0548 |  |  |  | 0.0663 |  |  |
| L77C | 0.0786 | 0.083 |  |  | 0.0871 | 0.0849 | 0.0579 |  | 0.0718 | 0.0573 | 0.0876 | 0.0697 | 0.0536 |  | 0.0715 | 0.0617 | 0.102 | 0.0587 | 0.0613 |
